Measurements reported in the supplement of paper PMC8728848.
The other results are listed elsewhere or left out.

How the values were obtained:
Experiment in all cases: glycan array binding signal (z-score within array); higher = stronger binding
Settings in all cases: glycan notation: IUPAC condensed, linker removed
Fuc(a1-2)Gal = biological target: Fuc(a1-2)Gal
Outline: (§1)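 Negative Z-scores can be read as non-binding. The Z-score is calculated within each array and then averaged across arrays of one protein sequence at different concentrations or buffers and across linkers. Arrays, 3228 in all, were curated from the Consortium for Functional Glycomics database and kept only where the protein sequence was available.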

Fuc(a1-2)Gal(b1-3)GalNAc = biological target: Fuc(a1-2)Gal(b1-3)GalNAc
Outline: as §1

[1] = biological target: Fuc(a1-2)Gal(b1-3)GalNAc(b1-3)Gal
Outline: as §1

[2] = biological target: Fuc(a1-2)Gal(b1-3)GalNAc(b1-3)Gal(a1-4)Gal(b1-4)Glc
Outline: as §1

[3] = biological target: Fuc(a1-2)Gal(b1-3)GalNAc(b1-4)[Neu5Ac(a2-3)]Gal(b1-4)Glc
Outline: as §1

Fuc(a1-2)Gal(b1-3)GlcNAc = biological target: Fuc(a1-2)Gal(b1-3)GlcNAc
Outline: as §1

[4] = biological target: Fuc(a1-2)Gal(b1-3)GlcNAc(b1-3)Gal(b1-4)Glc
Outline: as §1

[5] = biological target: Fuc(a1-2)Gal(b1-3)[Fuc(a1-4)]GlcNAc
Outline: as §1

Fuc(a1-2)Gal(b1-4)Glc = biological target: Fuc(a1-2)Gal(b1-4)Glc
Outline: as §1

Fuc(a1-2)Gal(b1-4)GlcNAc = biological target: Fuc(a1-2)Gal(b1-4)GlcNAc
Outline: as §1

[6] = biological target: Fuc(a1-2)Gal(b1-4)GlcNAc(b1-3)Gal(b1-4)GlcNAc
Outline: as §1

[7] = biological target: Fuc(a1-2)Gal(b1-4)GlcNAc(b1-3)Gal(b1-4)GlcNAc(b1-3)Gal(b1-4)GlcNAc
Outline: as §1

[8] = biological target: Fuc(a1-2)Gal(b1-4)[Fuc(a1-3)]GlcNAc
Outline: as §1

[9] = biological target: Fuc(a1-2)Gal(b1-4)[Fuc(a1-3)]GlcNAc(b1-3)Gal(b1-4)[Fuc(a1-3)]GlcNAc
Outline: as §1

[10] = biological target: Fuc(a1-2)Gal(b1-4)[Fuc(a1-3)]GlcNAc(b1-3)Gal(b1-4)[Fuc(a1-3)]GlcNAc(b1-3)Gal(b1-4)[Fuc(a1-3)]GlcNAc
Outline: as §1

Fuc(a1-2)GlcNAc = biological target: Fuc(a1-2)GlcNAc
Outline: as §1

Fuc(a1-2)[Gal(a1-3)]Gal = biological target: Fuc(a1-2)[Gal(a1-3)]Gal
Outline: as §1

[11] = biological target: Fuc(a1-2)[Gal(a1-3)]Gal(b1-3)GlcNAc
Outline: as §1

[12] = biological target: Fuc(a1-2)[Gal(a1-3)]Gal(b1-4)Glc
Outline: as §1

[13] = biological target: Fuc(a1-2)[Gal(a1-3)]Gal(b1-4)GlcNAc
Outline: as §1

[14] = biological target: Fuc(a1-2)[Gal(a1-3)]Gal(b1-4)[Fuc(a1-3)]GlcNAc
Outline: as §1

[15] = biological target: Fuc(a1-2)[Gal(a1-4)]Gal(b1-4)GlcNAc
Outline: as §1

[16] = biological target: Fuc(a1-2)[GalNAc(a1-3)]Gal
Outline: as §1

[17] = biological target: Fuc(a1-2)[GalNAc(a1-3)]Gal(b1-3)GlcNAc
Outline: as §1

[18] = biological target: Fuc(a1-2)[GalNAc(a1-3)]Gal(b1-4)Glc
Outline: as §1

[19] = biological target: Fuc(a1-2)[GalNAc(a1-3)]Gal(b1-4)GlcNAc
Outline: as §1

[20] = biological target: Fuc(a1-2)[GalNAc(a1-3)]Gal(b1-4)[Fuc(a1-3)]GlcNAc
Outline: as §1

[21] = biological target: Fuc(a1-2)[GalNAc(a1-4)]Gal(b1-4)GlcNAc
Outline: as §1

[22] = biological target: Fuc(a1-2)[GalNAc(b1-3)]Gal
Outline: as §1

Fuc(a1-3)GlcNAc = biological target: Fuc(a1-3)GlcNAc
Outline: as §1

B1: Siglec-H (Mus musculus), Q4QQK7 (protein)
chain: MLLSRLLPLLWVLKWASGNCFILPREVIGTYPSLTLELQSVTVQEGLCVLVPCHLIEYPMNRWSDAAFGYWFHEGENTHPDSLVATNKPYQLVQKEMQSRFHFSGDCSLDIRDAQKGDNGSYFFRLEKGGKTWNFCEERISVHVTDLTHSPNISIPQTLELGRPTNVMCSVPWACERGTPPIFSWMSAALISLGPTTTLSSVLTLTPRLQDHGTNLTCQVTFPGAGVTVQKTIQLNVTYNSQNSTAHVSGRVGPGKPRPLADVVQVAMGEAAIKFLLLGICFFFLSKRSHTKRVERPATHMDQAHAVMD
- glycan array binding signal (z-score) (Fuc(a1-2)Gal): -0.112
- glycan array binding signal (z-score) (Fuc(a1-2)Gal(b1-3)GalNAc): 0.608
- glycan array binding signal (z-score) [1]: 2.48
- glycan array binding signal (z-score) [2]: -0.283
- glycan array binding signal (z-score) [3]: -0.299
- glycan array binding signal (z-score) (Fuc(a1-2)Gal(b1-3)GlcNAc): -0.373
- glycan array binding signal (z-score) [4]: 2.46
- glycan array binding signal (z-score) [5]: -0.198
- glycan array binding signal (z-score) (Fuc(a1-2)Gal(b1-4)Glc): -0.346
- glycan array binding signal (z-score) (Fuc(a1-2)Gal(b1-4)GlcNAc): -0.298
- glycan array binding signal (z-score) [6]: -0.248
- glycan array binding signal (z-score) [7]: -0.324
- glycan array binding signal (z-score) [8]: -0.312
- glycan array binding signal (z-score) [9]: -0.254
- glycan array binding signal (z-score) [10]: 1.73
- glycan array binding signal (z-score) (Fuc(a1-2)GlcNAc): -0.327
- glycan array binding signal (z-score) (Fuc(a1-2)[Gal(a1-3)]Gal): -0.36
- glycan array binding signal (z-score) [11]: -0.239
- glycan array binding signal (z-score) [12]: -0.284
- glycan array binding signal (z-score) [13]: -0.354
- glycan array binding signal (z-score) [14]: -0.398
- glycan array binding signal (z-score) [15]: -0.324
- glycan array binding signal (z-score) [16]: -0.334
- glycan array binding signal (z-score) [17]: -0.271
- glycan array binding signal (z-score) [18]: -0.106
- glycan array binding signal (z-score) [19]: -0.206
- glycan array binding signal (z-score) [20]: -0.235
- glycan array binding signal (z-score) [21]: -0.311
- glycan array binding signal (z-score) [22]: -0.336
- glycan array binding signal (z-score) (Fuc(a1-3)GlcNAc): -0.312
